The source of these data is the supplement of paper PMC4604168 (melanoma cell lines).

The other results are listed elsewhere or left out. Most values come without repeats; read them as rough.
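Further: cells treated in 1,536-well plates, then fixed and DAPI-stained, with nuclei counted from automated high-throughput microscope images.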

The subject of this test is WM115. The experiment in a line: cell count relative to DMSO control; melanoma cells; higher = more viable cells. The note with it: library dose: standard library concentration; 72 h.
In turn, `CN(c1ncccc1CNc1nc(Nc2ccc3c(c2)CC(=O)N3)ncc1C(F)(F)F)S(C)(=O)=O` + COc1cc2c(Oc3ccc4[nH]c(C)cc4c3F)ncnc2cc1OCCCN1CCCC1 [cediranib] (first compound 0.4 µM, partner dose 2 µM) came in with a cell count of 66%.
`CCCS(=O)(=O)Nc1ccc(F)c(C(=O)c2c[nH]c3ncc(Cl)cc23)c1F` + CCCCCCCCCCCC1=C(O)C(=O)C=C(O)C1=O [Embelin] (first compound 0.4 µM, partner dose 6 µM) displayed a cell count of 92.2%.
Molecule `CCCS(=O)(=O)Nc1ccc(F)c(C(=O)c2c[nH]c3ncc(Cl)cc23)c1F` + Cc1cc(N2CCOCC2)cc2[nH]c(-c3c(NC[C@@H](O)c4cccc(Cl)c4)cc[nH]c3=O)nc12 [BMS536924] (first compound 0.4 µM, partner dose 1 µM) registered a cell count of 53.8%.
As for `C=C(c1ccc(C(=O)O)cc1)c1cc2c(cc1C)C(C)(C)CCC2(C)C` [Bexarotene] + Cn1cc(/C=C2\C(=O)Nc3cccnc32)c2ccccc21 [GW441756] (first compound 10 µM, partner dose 2 µM), the figure is 114%; as for `C=C(c1ccc(C(=O)O)cc1)c1cc2c(cc1C)C(C)(C)CCC2(C)C` [Bexarotene] + C[C@@H]1CCN(C(=O)CC#N)C[C@@H]1N(C)c1ncnc2[nH]ccc12 [CP690550] (first compound 10 µM, partner dose 5 µM), 104%.
The result for `C=C(c1ccc(C(=O)O)cc1)c1cc2c(cc1C)C(C)(C)CCC2(C)C` [Bexarotene] + N#Cc1c(O)c2c(-c3ccc(-c4ccccc4O)cc3)csc2[nH]c1=O [A769662] (first compound 10 µM, partner dose 10 µM) reads 88.5%.
